# Experimental data from a collection of fitness landscapes (doi:10.1016/j.celrep.2020.107928).
# In all, about 81,000 sequences were measured (“one-hybrid fitness for binding NBS DNA”: median about -0.1, highest 2% from about 0.36 on). The list shows a part of the results.
# B1: Caulobacter ParB omega fusion; a variant is named by its letters at X, in order, B8GW30 (parent)
# chain: MESVVVGEPGMSEGRRGLGRGLSALLGEVDAAPAQAPGEQLGGSREAPIEILQRNPDQPRRTFREEDLEDLSNSIREKGVLQPILVRPSPDTAGEYQIVAGERAWRAAQRAGLKTVPIMVRELDDLAVLEIGIIENVQRADLNVLEEALSYKVLMEKFERTQENIAQTIGKSXSHVANXMRLLXLPDEVQSYLVSGELTAXHARAIAAAADPVALAKQIIEGGLSVRETEALARKAPNLSAGKSKGGRPPRVKDTDTQALESDLSSVLGLDVSIDHRGSTGTLTITYATLEQLDDLCNRLTRGI
# Variants of: B1
# Assay: one-hybrid fitness for binding NBS DNA (the Noc-binding site; scaled: cognate 1, non-cognate 0); higher = stronger binding
# Details: with NBS DNA site
# In short: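 The reporter was HIS3, with the binding site 19 bp from the promoter, in E. coli USO used for bacterial one-hybrid selection of Caulobacter ParB libraries with four specificity codons randomised. Growth was on M9 lacking histidine, with 0.1 mM IPTG and 5 mM 3-AT, for 48 hours at 37°C. Illumina sequencing covered plasmids before and after selection; three replicate libraries were pooled and variants with under 10 reads dropped. A fitness score is the log change in variant-to-wild-type read ratio, rescaled to the cognate and non-cognate references.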
row,Variant,one-hybrid fitness for binding NBS DNA
1,NEVL,≤ 0.2
2,FADG,≤ 0.2
3,KTWR,≤ 0.2
4,STVK,≤ 0.2
5,PPTQ,≤ 0.2
6,CPAW,≤ 0.2
7,QYSY,≤ 0.2
8,APTE,≤ 0.2
9,WAHT,≤ 0.2
10,ARKT,0.239
11,KRRI,≤ 0.2
12,YITM,≤ 0.2
13,ATLV,≤ 0.2
14,MKGT,≤ 0.2
15,DRTC,≤ 0.2
16,RIDV,≤ 0.2
17,TSIT,≤ 0.2
18,TNLV,≤ 0.2
19,MNFG,≤ 0.2
20,VARY,≤ 0.2
21,NTGV,≤ 0.2
22,KRQY,≤ 0.2
23,SADP,≤ 0.2
24,MAAN,≤ 0.2

row,Variant,one-hybrid fitness for binding NBS DNA
1,EEKC,≤ 0.2
2,WTKH,≤ 0.2
3,PALY,≤ 0.2
4,RITG,≤ 0.2
5,KHVT,≤ 0.2
6,HSLY,≤ 0.2
7,RKYA,0.344
8,VPTS,≤ 0.2
9,PENV,≤ 0.2
10,GDAA,≤ 0.2
11,ARLK,≤ 0.2
12,HSYT,≤ 0.2
13,QLAP,≤ 0.2
14,GEAD,≤ 0.2
15,RIDA,≤ 0.2
16,RDEC,≤ 0.2
17,KVVD,≤ 0.2
18,KCNG,≤ 0.2
19,YNAG,≤ 0.2
20,RRCS,0.642
21,QYAN,≤ 0.2
22,IYDG,≤ 0.2
23,RKLA,0.229
24,APSP,≤ 0.2

row,Variant,one-hybrid fitness for binding NBS DNA
1,DHTD,≤ 0.2
2,ACNG,≤ 0.2
3,DDQC,≤ 0.2
4,CCAC,≤ 0.2
5,ADQT,≤ 0.2
6,YRHS,≤ 0.2
7,GCND,≤ 0.2
8,RKQI,≤ 0.2
9,RNEF,≤ 0.2
10,RTFM,≤ 0.2
11,SNWV,≤ 0.2
12,EYAT,≤ 0.2
13,QWLC,≤ 0.2
14,QAIE,≤ 0.2
15,HIGN,≤ 0.2
16,VVNY,≤ 0.2
17,LCTF,≤ 0.2
18,TTGP,≤ 0.2
19,QEIR,≤ 0.2
20,PTKG,≤ 0.2
21,LLKV,≤ 0.2
22,QHTS,0.372
23,AITG,≤ 0.2
24,EHAM,≤ 0.2

row,Variant,one-hybrid fitness for binding NBS DNA
1,VHLT,≤ 0.2
2,HMWA,≤ 0.2
3,GRWC,≤ 0.2
4,VAMK,≤ 0.2
5,EARA,≤ 0.2
6,CMTR,≤ 0.2
7,LMNT,≤ 0.2
8,TLWI,≤ 0.2
9,DYRV,≤ 0.2
10,HHYG,≤ 0.2
11,FNPY,≤ 0.2
12,AMVE,≤ 0.2
13,VSFY,≤ 0.2
14,CRWT,≤ 0.2
15,LAVA,≤ 0.2
16,VLPR,≤ 0.2
17,HESD,≤ 0.2
18,FCTA,≤ 0.2
19,QQRW,0.373
20,TDRV,≤ 0.2
21,AWYC,≤ 0.2
22,RVLK,≤ 0.2
23,CIGG,≤ 0.2
24,VNIS,≤ 0.2

row,Variant,one-hybrid fitness for binding NBS DNA
1,TYTC,≤ 0.2
2,RDAM,≤ 0.2
3,IFKS,≤ 0.2
4,WSAE,≤ 0.2
5,DCGV,≤ 0.2
6,DVRN,≤ 0.2
7,EAWA,≤ 0.2
8,VPTQ,≤ 0.2
9,CETG,≤ 0.2
10,HEGS,≤ 0.2
11,QAHH,≤ 0.2
12,GNST,≤ 0.2
13,CFYC,≤ 0.2
14,NMKT,≤ 0.2
15,DNPS,≤ 0.2
16,GEGR,≤ 0.2
17,HITV,≤ 0.2
18,PTVH,≤ 0.2
19,RGGG,≤ 0.2
20,KRDH,≤ 0.2
21,LSNE,≤ 0.2
22,PNDR,≤ 0.2
23,HHFC,≤ 0.2
24,RAFC,≤ 0.2

row,Variant,one-hybrid fitness for binding NBS DNA
1,MGNR,≤ 0.2
2,RCYD,≤ 0.2
3,QIYS,0.27
4,ANLQ,≤ 0.2
5,TEAC,≤ 0.2
6,SMGG,≤ 0.2
7,LCPV,≤ 0.2
8,LVMQ,≤ 0.2
9,SQDS,≤ 0.2
10,LHGV,≤ 0.2
11,PDFW,≤ 0.2
12,QGLA,≤ 0.2
13,ESNT,≤ 0.2
14,NQQF,≤ 0.2
15,RRQN,0.322
16,YPRG,≤ 0.2
17,YAIT,≤ 0.2
18,ETQK,≤ 0.2
19,TELI,≤ 0.2
20,RHVK,≤ 0.2
21,PNPG,≤ 0.2
22,CERG,≤ 0.2
23,RATP,≤ 0.2
24,IERV,≤ 0.2

row,Variant,one-hybrid fitness for binding NBS DNA
1,QYCQ,≤ 0.2
2,TKNN,≤ 0.2
3,FLDC,≤ 0.2
4,CPRL,≤ 0.2
5,VGFI,≤ 0.2
6,YTFV,≤ 0.2
7,PYYG,≤ 0.2
8,AWLC,≤ 0.2
9,RSSR,0.437
10,SRVD,≤ 0.2
11,GPKW,≤ 0.2
12,RYMM,≤ 0.2
13,QGEW,≤ 0.2
14,QHST,0.446
15,LKAS,≤ 0.2
16,MKNS,≤ 0.2
17,LNDR,≤ 0.2
18,WTVV,≤ 0.2
19,FTTP,≤ 0.2
20,EQMS,≤ 0.2
21,WPMR,≤ 0.2
22,QRSA,0.566
23,STGR,≤ 0.2
24,DPQL,≤ 0.2

row,Variant,one-hybrid fitness for binding NBS DNA
1,SMSM,≤ 0.2
2,QINN,≤ 0.2
3,CSRN,≤ 0.2
4,ARGT,≤ 0.2
5,PIMF,≤ 0.2
6,GARG,≤ 0.2
7,KSRN,≤ 0.2
8,FAIC,≤ 0.2
9,VMML,≤ 0.2
10,WIRG,≤ 0.2
11,LFAV,≤ 0.2
12,SWKT,≤ 0.2
13,NVRL,≤ 0.2
14,QCPE,≤ 0.2
15,NTAS,≤ 0.2
16,QYCL,≤ 0.2
17,FAYD,≤ 0.2
18,LHRG,≤ 0.2
19,YADW,≤ 0.2
20,HMGR,≤ 0.2
21,LGKC,≤ 0.2
22,NRTC,≤ 0.2
23,HVLA,≤ 0.2
24,HSSV,≤ 0.2

row,Variant,one-hybrid fitness for binding NBS DNA
1,SLGC,≤ 0.2
2,GIHS,≤ 0.2
3,STWD,≤ 0.2
4,ARQF,≤ 0.2
5,WKKT,≤ 0.2
6,GGAM,≤ 0.2
7,PMLS,≤ 0.2
8,ELRM,≤ 0.2
9,AVVE,≤ 0.2
10,PFDR,≤ 0.2
11,APRN,≤ 0.2
12,EGMG,≤ 0.2
13,QSHI,≤ 0.2
14,AETP,≤ 0.2
15,WSTC,≤ 0.2
16,HGVE,≤ 0.2
17,VRAV,≤ 0.2
18,LAID,≤ 0.2
19,NGLY,≤ 0.2
20,WLWS,≤ 0.2
21,PGMR,≤ 0.2
22,HDVR,≤ 0.2
23,SVET,≤ 0.2
24,CRTE,≤ 0.2

row,Variant,one-hybrid fitness for binding NBS DNA
1,QAQL,≤ 0.2
2,FYPR,≤ 0.2
3,YLAM,≤ 0.2
4,PHMW,≤ 0.2
5,PKPS,≤ 0.2
6,NKDL,≤ 0.2
7,YFVC,≤ 0.2
8,YPSR,≤ 0.2
9,CLFI,≤ 0.2
10,RIED,≤ 0.2
11,YQES,≤ 0.2
12,FRAK,≤ 0.2
13,DTCR,≤ 0.2
14,HRVV,≤ 0.2
15,YKSN,≤ 0.2
16,GLQM,≤ 0.2
17,CCQV,≤ 0.2
18,PVCV,≤ 0.2
19,SGTA,≤ 0.2
20,SPTH,≤ 0.2
21,SDYL,≤ 0.2
22,CFVL,≤ 0.2
23,RIGN,≤ 0.2
24,TYTS,≤ 0.2

row,Variant,one-hybrid fitness for binding NBS DNA
1,WYNT,≤ 0.2
2,HVPV,≤ 0.2
3,CKAP,≤ 0.2
4,METY,≤ 0.2
5,AYDG,≤ 0.2
6,WAKR,≤ 0.2
7,LNGY,≤ 0.2
8,WRQP,≤ 0.2
9,LNDL,≤ 0.2
10,MSCS,≤ 0.2
11,WCKS,≤ 0.2
12,IPTC,≤ 0.2
13,CRLV,≤ 0.2
14,DIEC,≤ 0.2
15,EYER,≤ 0.2
16,WNNT,≤ 0.2
17,LKTQ,≤ 0.2
18,RPRI,≤ 0.2
19,GWTG,≤ 0.2
20,EFTG,≤ 0.2
21,RVEH,≤ 0.2
22,LGCA,≤ 0.2
23,WWLW,≤ 0.2
24,QATM,≤ 0.2

row,Variant,one-hybrid fitness for binding NBS DNA
1,TVSC,≤ 0.2
2,PRTR,≤ 0.2
3,RLYN,≤ 0.2
4,HMYT,≤ 0.2
5,FICL,≤ 0.2
6,RNRA,≤ 0.2
7,KYAC,≤ 0.2
8,SALH,≤ 0.2
9,GYAG,≤ 0.2
10,MTPT,≤ 0.2
11,DTKE,≤ 0.2
12,RTNF,≤ 0.2
13,AIRL,≤ 0.2
14,KFSL,≤ 0.2
15,MGFL,≤ 0.2
16,VNTR,≤ 0.2
17,VYGL,≤ 0.2
18,TNPC,≤ 0.2
19,TYSA,≤ 0.2
20,CIQG,≤ 0.2
21,RWFR,≤ 0.2
22,GATN,≤ 0.2
23,PSRD,≤ 0.2
24,ALEG,≤ 0.2

row,Variant,one-hybrid fitness for binding NBS DNA
1,HLQY,≤ 0.2
2,KYKK,≤ 0.2
3,LTHK,≤ 0.2
4,QKQG,≤ 0.2
5,RAVP,≤ 0.2
6,GLKS,≤ 0.2
7,PRMP,≤ 0.2
8,HTKA,≤ 0.2
9,SKFS,≤ 0.2
10,RYSV,≤ 0.2
11,AVKC,≤ 0.2
12,FIVE,≤ 0.2
13,CKST,≤ 0.2
14,TSTC,≤ 0.2
15,EMHY,≤ 0.2
16,HNLL,≤ 0.2
17,PPPM,≤ 0.2
18,LYYC,≤ 0.2
